From the BET-seq Pho4 binding data (Le et al. 2018)
Some of the results follow. The energies were worked out here from pooled read counts, against the library average; single values are noisy.

molecular target: T1, Pho4 (S. cerevisiae) (UniProt P07270); assay: relative binding free energy (BET-seq); higher = weaker binding; settings: reference: library average
T1 sequence: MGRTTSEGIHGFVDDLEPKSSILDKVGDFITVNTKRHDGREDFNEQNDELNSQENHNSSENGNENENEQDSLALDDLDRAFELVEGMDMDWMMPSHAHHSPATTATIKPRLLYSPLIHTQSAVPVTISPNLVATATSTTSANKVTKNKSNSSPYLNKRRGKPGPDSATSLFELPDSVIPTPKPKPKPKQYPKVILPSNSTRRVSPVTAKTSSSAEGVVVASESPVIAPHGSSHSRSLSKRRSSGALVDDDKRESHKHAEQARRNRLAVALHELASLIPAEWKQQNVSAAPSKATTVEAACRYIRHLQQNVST

Sequence | relative binding free energy
TAGTGCACGTGAGGGT | 0.24 kcal/mol
TTATGCACGTGACAGT | 0.09 kcal/mol
CATTGCACGTGAAGGG | 0.29 kcal/mol
AGGAGCACGTGAGATA | 0.33 kcal/mol
GGATACACGTGTGGAT | 0.08 kcal/mol
TTAAGCACGTGTTCGG | -0.02 kcal/mol
TTTAGCACGTGTCGTT | 0 kcal/mol
TAAGGCACGTGGTTGG | -0.2 kcal/mol
GTCATCACGTGTTGCG | 0.28 kcal/mol
TTTGACACGTGAGGTT | 0.19 kcal/mol
TTAATCACGTGGAAAG | 0.29 kcal/mol
ATTGTCACGTGTCGTC | 0.1 kcal/mol
TGAGACACGTGTGTTT | -0.07 kcal/mol
GCGTTCACGTGTAGGG | 0.23 kcal/mol
CGGTTCACGTGGCATT | 0.17 kcal/mol
AAGAGCACGTGGATGG | -0.19 kcal/mol
TAGGACACGTGCTTTT | -0.07 kcal/mol
ATTTACACGTGGTAGA | 0.1 kcal/mol
CAGGGCACGTGTTATG | 0.03 kcal/mol
GGGACCACGTGGGGCG | -0.18 kcal/mol
GATGGCACGTGCTATG | 0.02 kcal/mol
TTGAACACGTGTTATA | -0.04 kcal/mol
TTGTTCACGTGTGAGC | 0.32 kcal/mol
ACGGGCACGTGTGGAA | -0.03 kcal/mol
TATTTCACGTGGGGAC | 0.21 kcal/mol
CAGGTCACGTGTGGGA | 0.03 kcal/mol

Sequence | relative binding free energy
TCGTGCACGTGGGTAG | -0.15 kcal/mol
GTTATCACGTGTTCTA | 0.11 kcal/mol
TTTAACACGTGGTGGC | -0.03 kcal/mol
TTAGTCACGTGATCTA | 0.13 kcal/mol
GATTGCACGTGGAAGT | 0.21 kcal/mol
GGTTTCACGTGCATTA | 0.42 kcal/mol
TGTAGCACGTGGTTTT | -0.09 kcal/mol
TGTTTCACGTGGGAGT | 0.19 kcal/mol
TGCGGCACGTGTGTGT | -0.17 kcal/mol
GATTTCACGTGAGGTG | 0.59 kcal/mol
TACATCACGTGGGGAG | 0.07 kcal/mol
TGTAACACGTGCGTGT | -0.1 kcal/mol
ATTTACACGTGAGTGT | 0.26 kcal/mol
ATTCACACGTGATGGT | 0.14 kcal/mol
GTGTCCACGTGTTTAG | 0.15 kcal/mol
TGGAGCACGTGGATAT | -0.09 kcal/mol
TGTACCACGTGGGGAT | -0.17 kcal/mol
ATTTACACGTGTTCAT | -0.04 kcal/mol
GTTTGCACGTGTGCAA | -0.03 kcal/mol
TAGAACACGTGAGAGG | 0.35 kcal/mol
AGATTCACGTGCTTTA | 0.22 kcal/mol
GCAGACACGTGGGTTT | 0.05 kcal/mol
CTGGGCACGTGGGGCC | -0.32 kcal/mol
TGTGTCACGTGAAGGT | 0.31 kcal/mol
TCAGACACGTGTGGTA | 0.07 kcal/mol
TATGACACGTGTGGAA | 0.06 kcal/mol

Sequence | relative binding free energy
TTGAACACGTGCTTGT | -0.01 kcal/mol
GGAATCACGTGTCGTT | 0.19 kcal/mol
GGTCTCACGTGTAATG | 0.16 kcal/mol
TAGCTCACGTGGAGTT | 0.27 kcal/mol
CGATGCACGTGTAGGT | 0.02 kcal/mol
TTACTCACGTGGGGTT | 0.09 kcal/mol
GTAGTCACGTGTTTTA | 0.24 kcal/mol
GCGAGCACGTGTTTTG | 0.02 kcal/mol
TGGGGCACGTGGCTAT | -0.08 kcal/mol
GTGGTCACGTGTGGAA | 0.02 kcal/mol
AAGTTCACGTGGTAAT | 0.27 kcal/mol
TGAGTCACGTGTCTGG | 0.07 kcal/mol
GGTTTCACGTGCGCTA | 0.33 kcal/mol
GTGGTCACGTGGGTGC | 0.05 kcal/mol
AACGGCACGTGAGAGG | 0.2 kcal/mol
TTGTGCACGTGATTCT | 0.16 kcal/mol
GTATCCACGTGATGGT | 0.21 kcal/mol
TTTGACACGTGTTCTA | -0.06 kcal/mol
GGGTACACGTGGTATG | -0.07 kcal/mol
ATGATCACGTGGGCAT | 0.05 kcal/mol
TCGTGCACGTGTTGTT | 0.06 kcal/mol
CTTGTCACGTGTGTTG | 0.16 kcal/mol
TGGGTCACGTGCAGTT | 0.13 kcal/mol
CTGAGCACGTGGGTCG | -0.17 kcal/mol
ACGGGCACGTGAATGT | 0.03 kcal/mol
AGAAGCACGTGTCTGG | -0.01 kcal/mol

Sequence | relative binding free energy
GGCGGCACGTGTAGTA | 0.01 kcal/mol
GGTTGCACGTGCCATG | 0.01 kcal/mol
AGTGGCACGTGAGCGT | -0.01 kcal/mol
TTGTACACGTGCGGGA | 0.08 kcal/mol
TGATTCACGTGTTGCT | 0.32 kcal/mol
GTCGTCACGTGGTGCA | 0.09 kcal/mol
TGGTACACGTGAAGAA | 0.27 kcal/mol
TTATCCACGTGGATGT | -0.01 kcal/mol
AATGTCACGTGGTAAA | -0.06 kcal/mol
GTAGTCACGTGGCTTG | 0.09 kcal/mol
TTAGGCACGTGGCAAG | -0.26 kcal/mol
TATCGCACGTGTCGGG | 0.04 kcal/mol
TTGTTCACGTGATTAA | 0.33 kcal/mol
GGAAACACGTGGGTTG | -0.19 kcal/mol
GAAGGCACGTGGGTTA | -0.21 kcal/mol
GTTTGCACGTGACGGG | 0.16 kcal/mol
ATGTCCACGTGGGCTT | -0.07 kcal/mol
AAGGGCACGTGAATTG | 0.13 kcal/mol
TAAGTCACGTGCGGTA | 0.11 kcal/mol
GGTTACACGTGATAGG | 0.26 kcal/mol
GAGGACACGTGGGTCG | 0.05 kcal/mol
GGGTTCACGTGTTAAG | 0.38 kcal/mol
GTGGACACGTGGTTTG | 0.01 kcal/mol
TTGTCCACGTGATGGT | 0.22 kcal/mol
CAGTCCACGTGTGGGG | -0.04 kcal/mol
GTGAACACGTGGGTCT | 0.11 kcal/mol

Sequence | relative binding free energy
TTGGGCACGTGCATGT | -0.19 kcal/mol
ATATGCACGTGATGGC | 0.02 kcal/mol
TTATTCACGTGGCGTT | 0.17 kcal/mol
AGGCGCACGTGATTTG | -0.02 kcal/mol
AAACGCACGTGATGGG | 0.02 kcal/mol
AGGGGCACGTGGCAGA | -0.24 kcal/mol
GGGAGCACGTGTGTCG | 0.07 kcal/mol
TGGAGCACGTGGGCTC | -0.22 kcal/mol
ATGTACACGTGTTGAA | 0.04 kcal/mol
GGAGGCACGTGCGAGG | -0.1 kcal/mol
AGTATCACGTGGTAAA | 0.15 kcal/mol
TGGTGCACGTGAGATG | 0.21 kcal/mol
ATTGACACGTGGGGGT | -0.07 kcal/mol
GTCGTCACGTGTTTAG | 0.18 kcal/mol
ATCATCACGTGGTGGA | 0.14 kcal/mol
GAGGGCACGTGCGAGT | -0.04 kcal/mol
TGGCTCACGTGAGGAT | 0.23 kcal/mol
CTTGGCACGTGGCTCG | -0.17 kcal/mol
TAGGTCACGTGTATAA | 0.02 kcal/mol
GGGACCACGTGGTTAG | 0.07 kcal/mol
ATGGTCACGTGGCGTA | -0.03 kcal/mol
TTGGCCACGTGATTGG | 0.04 kcal/mol
TGTTGCACGTGACGAT | 0.06 kcal/mol
TGAAACACGTGCGGTT | 0.05 kcal/mol
TATCGCACGTGTTGGG | -0.05 kcal/mol
AGCTTCACGTGGGGGA | 0.09 kcal/mol

Sequence | relative binding free energy
TATAGCACGTGTAAAT | 0.08 kcal/mol
CGATTCACGTGTCGGT | 0.38 kcal/mol
CGAGACACGTGGGGAT | -0.08 kcal/mol
TGATTCACGTGCGGTC | 0.3 kcal/mol
GTAAGCACGTGGAGGC | 0.06 kcal/mol
ATTGGCACGTGTTACA | -0.15 kcal/mol
GTGGTCACGTGTAAAG | 0.21 kcal/mol
ATGCGCACGTGTGTTA | -0.14 kcal/mol
GATAGCACGTGTGTGG | -0.06 kcal/mol
CGCGGCACGTGGGTGG | -0.19 kcal/mol
GTCTGCACGTGGATGT | 0.12 kcal/mol
GAAAGCACGTGGGGGG | -0.18 kcal/mol
GATAGCACGTGGTGGT | -0.06 kcal/mol
ATATGCACGTGGCATT | -0.2 kcal/mol
GGGGACACGTGGTTGT | 0.02 kcal/mol
GAGGTCACGTGATGGC | 0.46 kcal/mol
TAGGTCACGTGTGAGT | 0.16 kcal/mol
AAGGTCACGTGTACGG | 0.2 kcal/mol
TGGTGCACGTGAAGGG | 0.33 kcal/mol
TGTTGCACGTGATGAT | 0.23 kcal/mol
GCGTGCACGTGCGTGG | -0.14 kcal/mol
TTGGACACGTGAGATA | 0.29 kcal/mol
TAGTGCACGTGCGAAT | 0.02 kcal/mol
GTTTGCACGTGTTACT | 0.11 kcal/mol
CTGTACACGTGAGCGG | 0.25 kcal/mol
GTTGACACGTGAGGAA | 0.34 kcal/mol

Sequence | relative binding free energy
CAATACACGTGGAGGG | 0.1 kcal/mol
GAGGGCACGTGAGGAT | 0.18 kcal/mol
TGTTTCACGTGGTGTA | 0.23 kcal/mol
GATGGCACGTGGCATG | -0.09 kcal/mol
GGTCACACGTGTGGGA | 0.06 kcal/mol
TCTGGCACGTGAGTAT | 0.02 kcal/mol
GGAATCACGTGCTTTT | 0.17 kcal/mol
CTAGTCACGTGGAGGC | 0.14 kcal/mol
CTTAGCACGTGTTTAA | 0.02 kcal/mol
ATTTGCACGTGAGTAA | 0.37 kcal/mol
TGTGGCACGTGGGTGA | -0.27 kcal/mol
GGGTTCACGTGGATCG | 0.38 kcal/mol
TGCAGCACGTGTCGGG | 0.02 kcal/mol
TGTGGCACGTGATACA | 0.1 kcal/mol
TACGTCACGTGCTGTT | 0.15 kcal/mol
TGTCTCACGTGATTGG | 0.2 kcal/mol
GTTATCACGTGATTTT | 0.38 kcal/mol
ACAGTCACGTGTGTAG | 0.14 kcal/mol
GTCGCCACGTGGGAGG | -0.1 kcal/mol
CATGGCACGTGGAAGT | 0.1 kcal/mol
TGGACCACGTGCGGGG | -0.2 kcal/mol
GGGTGCACGTGGGTCT | -0.14 kcal/mol
AGACTCACGTGAGGGG | 0.2 kcal/mol
GGAAACACGTGCGTGG | -0.03 kcal/mol
AATGGCACGTGAGTAT | 0.05 kcal/mol
CGAAGCACGTGGTTGG | -0.2 kcal/mol

Sequence | relative binding free energy
TTTCACACGTGGTTGC | 0.09 kcal/mol
GGGGTCACGTGTACGG | 0.2 kcal/mol
TTATGCACGTGGGAAT | -0.11 kcal/mol
CGGAGCACGTGGGTGT | -0.23 kcal/mol
GCGTCCACGTGTGTGG | 0 kcal/mol
GTTAACACGTGTAATG | 0 kcal/mol
TGCGTCACGTGTGGGC | 0.14 kcal/mol
TCTTTCACGTGGTTGG | 0.31 kcal/mol
ACAGTCACGTGTTAAT | 0.18 kcal/mol
GGTCACACGTGTATGG | 0.18 kcal/mol
AATTTCACGTGGAGGA | 0.15 kcal/mol
TGCGTCACGTGGACTT | 0.18 kcal/mol
ATGTACACGTGTCATT | 0.06 kcal/mol
TGTTACACGTGGGAGT | 0.02 kcal/mol
GAGGTCACGTGTGCGT | 0.21 kcal/mol
TTTTGCACGTGTCTCA | 0.08 kcal/mol
CTTGGCACGTGAGTGT | 0.19 kcal/mol
CGGTGCACGTGGAGTT | 0 kcal/mol
TATAGCACGTGAATTT | 0.32 kcal/mol
TAGGGCACGTGCTATG | -0.2 kcal/mol
GTCTTCACGTGAGATG | 0.44 kcal/mol
GGAGGCACGTGTTGCT | -0.17 kcal/mol
CGGTTCACGTGACGGT | 0.33 kcal/mol
CGAGCCACGTGGGTGG | -0.31 kcal/mol
TGAGACACGTGAGTTT | 0.2 kcal/mol
GTCGTCACGTGGGGTC | 0.03 kcal/mol

Sequence | relative binding free energy
GTTCGCACGTGGAGCG | -0.02 kcal/mol
TCATACACGTGATTTG | 0.25 kcal/mol
GATAGCACGTGTGGTA | 0.03 kcal/mol
GCTGGCACGTGTCTTA | 0.13 kcal/mol
TTTCTCACGTGTGGTT | 0.32 kcal/mol
GAGTGCACGTGGGTTT | -0.13 kcal/mol
ATATACACGTGTACGG | 0.13 kcal/mol
GGTTACACGTGGGCCG | 0.09 kcal/mol
CTGAGCACGTGCGTGG | -0.2 kcal/mol
CTGTTCACGTGTCGTG | 0.34 kcal/mol
ATGATCACGTGAGTGG | 0.15 kcal/mol
GAGGGCACGTGTAAGC | 0.13 kcal/mol
TGAAGCACGTGGTTCA | -0.04 kcal/mol
AAATTCACGTGATTGA | 0.48 kcal/mol
AGATTCACGTGCGGGG | 0.21 kcal/mol
TATGGCACGTGTCGCG | -0.07 kcal/mol
ATGGTCACGTGTTAGC | 0.18 kcal/mol
CGAGTCACGTGCGTTG | 0.08 kcal/mol
CTTTGCACGTGGGATT | 0.02 kcal/mol
TCTGACACGTGGAGTG | 0.05 kcal/mol
AGGATCACGTGGTGCG | -0.03 kcal/mol
TTTGGCACGTGGGGTG | -0.19 kcal/mol
